In ChEMBL document CHEMBL1201862, “PubChem BioAssay data set” (2004):
Where a name gives a salt, the structure may show the parent alone.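 Cells were grown in 96-well plates and exposed to each compound for 48 hours at five concentrations; endpoints were interpolated linearly between bracketing concentrations, or set to the highest concentration if not reached. Here, GI50 denotes the concentration required for 50% inhibition of growth.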 Activity calls are given as the source filed them. Cut-off read from the data, not from the text of the source: active = GI50 up to about 1.1 µM and inactive = higher. Square brackets hold non-standard residues; d marks the D form. Peptide text beside a SMILES is read from it. * marks the point of attachment. hSer = N[CH](CCO)C(=O)O; Boc = CC(C)(C)OC(=O)*; OBn = c1ccc(CO*)cc1

The compounds below were run on NCI-H322M (assay: NCI anticancer screen, dose series, 48 h).

Question: Which GI50 does the source give for `CCOP(=O)(OCC)OC1CC(n2cc(C)c(=O)n(C)c2=O)OC1CO[Si](C)(C)C(C)(C)C` (stereo unspecified) here?
Answer: inactive: > 100 µM

Question: With `O=C1C=C(N2CC2)C(=O)C=C1N1CC1` as the compound, how does the GI50 read?
Answer: inactive: 1.5 µM

Question: Which GI50 does the source give for `O=C1C2=C(c3ccccc31)C(c1ccccc1Cl)N1C(=O)CCSC1=N2` (stereo unspecified) here?
Answer: inactive: > 100 µM

Question: Which GI50 does the source give for `COc1cc(C2c3cc4c(cc3[C@H](OCCN(C)C)[C@@H]3COC(=O)C23)OCO4)cc(OC)c1O` (stereo partly specified) here?
Answer: inactive: 1.97 µM

Question: For `CC(=N\N)/C(C)=N/N=C(C)/C(C)=N/N=C(C)/C(C)=N/N`, which GI50 is on record?
Answer: inactive: > 100 µM

Question: For `NC1CNC(=O)c2c(Cl)sc(Cl)c21` (stereo unspecified), which GI50 is on record?
Answer: inactive: > 100 µM

Question: With `O=[N+]([O-])c1cccc2nc3ccccc3c(NCCCn3ccnc3[N+](=O)[O-])c12` as the compound, how does the GI50 read?
Answer: active: 0.000379 µM

Question: Which GI50 does the source give for `CC(C)C1=CC23CCC4C(C)(C(=O)O)CCCC4(C)C2CC1C1C(=O)N(c2ccccc2)C(=O)C13` (stereo unspecified) here?
Answer: inactive: 31.6 µM

Question: For `c1ccc(-c2nc3sccn3n2)cc1`, which GI50 is on record?
Answer: inactive: > 100 µM

Question: How did the GI50 turn out when `CCOC(=O)c1c(NS(=O)(=O)c2ccccc2)sc2c1CCCC2` was run?
Answer: inactive: 69.5 µM

Question: For `COc1ccc2nc(-c3ccccc3)c(=O)[nH]c2c1`, which GI50 is on record?
Answer: inactive: > 100 µM

Question: For `CSc1nc(C)cc(N(C)c2ccccc2)n1`, which GI50 is on record?
Answer: inactive: 51.9 µM

Question: How did the GI50 turn out when `N#Cc1cccnc1Cl` was run?
Answer: inactive: > 100 µM

Question: Which GI50 does the source give for `N=C/N=C/C(=S)O[C@@H]1C(=O)N2CCC[C@@]23CCCC[C@@H]13` here?
Answer: inactive: > 12.5 µM

Question: Which GI50 does the source give for `O=C(/C=C/c1ccc(Cl)cc1)Oc1ccc(C=C2CCC/C(=C\c3ccc(OC(=O)/C=C/c4ccc(Cl)cc4)cc3)C2=O)cc1` here?
Answer: inactive: > 100 µM

Question: Which GI50 does the source give for `C=C(C)C(=O)CC[C@@H](C)[C@H]1[C@@H](OC2OC(CO)C(O)C(O)C2O)C[C@@]2(C)[C@@H]3C[C@H](O)C4C(C)(C)[C@@H](OC5OC(CO)C(O)C(O)C5O)CC[C@@]45C[C@@]35CC[C@]12C` (stereo partly specified) here?
Answer: inactive: > 100 µM

Question: Which GI50 does the source give for `O=C1C(=Cc2ccc(F)cc2)C(=O)c2ccccc21` here?
Answer: inactive: > 100 µM

Question: `C=CCOCn1cc(C)c(=O)[nH]c1=O` was tested. Which GI50 did it give?
Answer: inactive: > 100 µM

Question: For `Cn1c(=O)sc2cc(C(=S)N3CCCCC3)ccc21`, which GI50 is on record?
Answer: inactive: > 100 µM

Question: With `COc1cc2c(NCCN(C)C)nc3c4cc5c(cc4ccc3c2cc1OC)OCO5` as the compound, how does the GI50 read?
Answer: inactive: 3.05 µM

Question: For `COc1cc2c(cc1OC)[C@@H](C(O)c1ccccc1)NCC2` (stereo partly specified), which GI50 is on record?
Answer: inactive: > 100 µM

Question: Which GI50 does the source give for `CN(C)CCCNC(=O)c1cc(NC(=O)c2cc(NC(=O)[C@H]3C[C@@H]3C(=O)Nc3cc(C(=O)Nc4cc(C(=O)NCCCN(C)C)n(C)c4)n(C)c3)cn2C)cn1C` here?
Answer: inactive: > 100 µM

Question: With `CCCCOC(=O)C1C(c2ccc(Cl)cc2)NC(c2ccc(Cl)cc2)C(C(=O)OCCCC)S1(=O)=O` (stereo unspecified) as the compound, how does the GI50 read?
Answer: inactive: > 100 µM

Question: For `C1CCC(N=C2N(C3CCCCC3)C(=NC3CCCCC3)N2C2CCCCC2)CC1`, which GI50 is on record?
Answer: inactive: > 100 µM

Question: For `CCCCCC(=O)N[C@H](C(=O)N[C@H](C(=O)N(C)[C@H](C(=O)N1CCC[C@H]1C(=O)N1CCC[C@H]1C(=O)O[C@H](C(=O)N1C(=O)C=C(OC)[C@@H]1Cc1ccccc1)C(C)C)C(C)C)C(C)C)C(C)C` (HELM PEPTIDE1{[CCCCCC(=O)[*:2]].V.V.[meV].P.P.[COC1=CC(=O)N(C(=O)[C@@H](O[*:1])C(C)C)[C@H]1Cc1ccccc1]}$$$$V2.0), which GI50 is on record?
Answer: inactive: > 100 µM

Question: How did the GI50 turn out when `CC(C)C(C/C=C1\CC(CO)(COC(=O)CC(C(C)C)C(C)C)OC1=O)C(C)C` (stereo unspecified) was run?
Answer: inactive: 13.5 µM

Question: How did the GI50 turn out when `COc1c(OC)c(OC)c2c(=O)cc(-c3ccc(OC(C)C)cc3)oc2c1OC` was run?
Answer: inactive: > 37.3 µM

Question: How did the GI50 turn out when `Cc1ccc([S+](c2ccccc2)c2cc(C)ccc2C)cc1` (stereo unspecified) was run?
Answer: active: 0.094 µM

Question: With `Cc1c2ccncc2c(C)c2c1[nH]c1ccc(OCC(F)(F)F)cc12` as the compound, how does the GI50 read?
Answer: inactive: 1.73 µM

Question: With `COc1c(O)ccc(/C=N/NC(=S)NCOCCOC(C)=O)c1OC` as the compound, how does the GI50 read?
Answer: inactive: > 100 µM

Question: How did the GI50 turn out when `CN(C)c1nc(N(C)c2ccccc2)[s+]s1` was run?
Answer: inactive: > 100 µM

Question: `CSCCCNC(=O)c1csc(-c2csc(CCNC(=O)CNC(=O)OC(C)(C)C)n2)n1` was tested. Which GI50 did it give?
Answer: inactive: > 100 µM

Question: `O=C(CC(=O)N1N=C(N2c3ccccc3Sc3ccccc32)CC1c1ccccc1)Nc1ccc(Cl)cc1` (stereo unspecified) was tested. Which GI50 did it give?
Answer: inactive: > 100 µM

Question: `O=Cc1cc2c(o1)C(=O)c1ccccc1C2=O` was tested. Which GI50 did it give?
Answer: inactive: 1.39 µM

Question: How did the GI50 turn out when `O=C1OS2(OCc3cccc4cccc2c34)c2ccccc21` (stereo unspecified) was run?
Answer: inactive: > 100 µM

Question: With `O=C1c2ccccc2C(=O)c2c(NCCNCCO)ccc(O)c21` as the compound, how does the GI50 read?
Answer: inactive: 2.67 µM

Question: How did the GI50 turn out when `O=C1OC2(c3ccccc31)c1cc(I)c(O)c(I)c1Oc1c2cc(I)c(O)c1I` [ERYTHROSINE] was run?
Answer: inactive: 6.08 µM

Question: Which GI50 does the source give for `CC(C)CC(NC(=O)C(Cc1ccccc1)NC(=O)C(Cc1ccccc1)NC(=O)OC(C)(C)C)C(=O)OCc1ccccc1` (stereo not drawn) (Boc-Phe-Phe-Leu-OBn; configuration not given here) here?
Answer: inactive: > 100 µM

Question: How did the GI50 turn out when `Nc1ncnc2c1ncn2-c1ccc([N+](=O)[O-])cn1` was run?
Answer: inactive: > 100 µM

Question: `CCC1=C(c2ccc(OC)cc2)CC[C@@]2(CCNC2=O)[C@@H]1C` was tested. Which GI50 did it give?
Answer: inactive: > 100 µM

Question: `FC(F)(F)c1nc2nc(Cl)c(Cl)nc2n1CCCN1CCOCC1` was tested. Which GI50 did it give?
Answer: inactive: 27 µM

Question: Which GI50 does the source give for `C[C@]12CCC3C4=C(CCC3C1CCC2=O)C(=O)[C@H]1O[C@H]1C4=O` (stereo partly specified) here?
Answer: inactive: 16.6 µM

Question: For `Clc1ccc(C2=NN(c3ccccc3)C3c4cc(Br)ccc4OCC23)cc1` (stereo unspecified), which GI50 is on record?
Answer: inactive: 97.5 µM

Question: Which GI50 does the source give for `CCCCC/C=C1\CCC(CN2CCOCC2)C1=O` (stereo unspecified) here?
Answer: inactive: 19.1 µM

Question: With `CC(C)(C)c1cc(C(=O)/C=C/c2cc[nH]n2)cc(C(C)(C)C)c1O` as the compound, how does the GI50 read?
Answer: inactive: 17 µM

Question: `C/C(CC(=O)Nc1ccc(C)cc1C)=N/N=C(N)N` was tested. Which GI50 did it give?
Answer: inactive: > 100 µM

Question: `O=C(O)c1oc(C(=O)O)c(C(=O)O)c1C(=O)O` was tested. Which GI50 did it give?
Answer: inactive: > 100 µM

Question: `Cc1cccc(/C=N/NC(=S)N(C)CCc2ccccn2)n1` was tested. Which GI50 did it give?
Answer: active: 0.865 µM

Question: How did the GI50 turn out when `CC1CN(c2cc3c(cc2F)c(=O)c(C(=O)O)cn3-c2ccc(N3CCN(C)CC3)cn2)CC(C)N1` (stereo unspecified) was run?
Answer: inactive: > 100 µM

Question: How did the GI50 turn out when `CN1CCC(CN2c3ccccc3Sc3ccccc32)C1` (stereo unspecified) [METHDILAZINE HYDROCHLORIDE] was run?
Answer: inactive: 17.2 µM

Question: Which GI50 does the source give for `O=C1N(c2ccc(Cl)cc2)C(=O)C2(SC=NN2Cc2ccccc2)N1c1ccc(Cl)cc1` (stereo unspecified) here?
Answer: inactive: > 100 µM

Question: `CCOc1ccccc1C=C1c2ccccc2C(=O)c2ccccc21` was tested. Which GI50 did it give?
Answer: inactive: 5.14 µM

Question: For `COc1ccc(/C(Cl)=C(\C=O)c2ccc(OC)c(OC)c2)cc1`, which GI50 is on record?
Answer: inactive: > 100 µM

Question: For `C=C=C(CC)C(C(=O)OC)N(CC)CC` (stereo unspecified), which GI50 is on record?
Answer: inactive: > 100 µM

Question: How did the GI50 turn out when `c1ccc([P+](c2ccccc2)(c2ccccc2)c2ccc(-c3ccc([P+](c4ccccc4)(c4ccccc4)c4ccccc4)cc3)cc2)cc1` was run?
Answer: inactive: 46.2 µM

Question: `O=c1[nH]c(=O)c2c3n(cc2[nH]1)CCCCC3` was tested. Which GI50 did it give?
Answer: inactive: > 100 µM

Question: How did the GI50 turn out when `COC(=O)C1CCC(=O)N1C(c1ccccc1)c1cc(OC)c(OC)c(OC)c1` (stereo unspecified) was run?
Answer: inactive: > 100 µM

Question: Which GI50 does the source give for `COCCC(NC(=O)C(CC(C)C)NC(=O)OC(C)(C)C)C(N)=O` (stereo not drawn) (Boc-Leu-[hSer](Me)-NH2; configuration not given here) here?
Answer: inactive: > 100 µM

Question: For `COC(=O)CSc1nnc(-c2ccc(O)c([N+](=O)[O-])c2)[nH]1`, which GI50 is on record?
Answer: inactive: > 100 µM

Question: For `OCc1ccn2c1[C@@H](O)CC2`, which GI50 is on record?
Answer: inactive: > 100 µM

Question: `c1ccc(CSc2ccccc2CN2CCN(Cc3ccccc3SCc3ccccc3)CCN(Cc3ccccc3SCc3ccccc3)CC2)cc1` was tested. Which GI50 did it give?
Answer: inactive: 1.82 µM
